Assay results published in PubChem BioAssay AID1745853 (National Center for Advancing Translational Sciences (NCATS), 2022).
Several values for one entry are separate records, joined by “and”; a condition that tells them apart may be missing. Equal values may be shown once. The list shows a part of the results. The main result of the screen is listed elsewhere. These columns were measured beside it and carry no call.

Legend:
Assay in all cases: Primary Screen for Target Class Profiling of Small Molecule Inhibitors of Methyltransferases
[1] = molecular target: Glycine N-methyltransferase (Homo sapiens) (UniProt Q14749); conditions: purified enzyme, MTase-Glo SAH luminescence; measured here: GNMT inhibition; at 40 µM; stronger effect = lower value
Method in brief: (§1)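 Each enzyme was reacted with SAM and its substrate, with compounds tested once at 40 uM; SAH formed was read by MTase-Glo luminescence.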

[2] = molecular target: Guanidinoacetate N-methyltransferase (Homo sapiens) (UniProt Q14353); conditions: purified enzyme, MTase-Glo SAH luminescence; measured here: GAMT inhibition; at 40 µM; stronger effect = lower value
Method in brief: as §1

[3] = molecular target: Histamine N-methyltransferase (Homo sapiens) (UniProt P50135); conditions: purified enzyme, MTase-Glo SAH luminescence; measured here: HNMT inhibition; at 40 µM; stronger effect = lower value
Method in brief: as §1

[4] = molecular target: Nicotinamide N-methyltransferase (Homo sapiens) (UniProt P40261); conditions: purified enzyme, MTase-Glo SAH luminescence; measured here: NNMT inhibition; at 40 µM; stronger effect = lower value
Method in brief: as §1

[5] = molecular target: Phenylethanolamine N-methyltransferase (Homo sapiens) (UniProt P11086); conditions: purified enzyme, MTase-Glo SAH luminescence; measured here: PNMT inhibition; at 40 µM; stronger effect = lower value
Method in brief: as §1
% is set by controls: 0 for no effect and ±100 for the full control effect.

Work on `COc1cc(/C=C2\CCCN([C@@H](C)c3ccc(F)cc3)C2=O)ccc1-n1cnc(C)c1` yielded an activity change, negative = inhibition [1] of -63.4%, an activity change, negative = inhibition [2] of 5.38% and an activity change, negative = inhibition [3] of -45.7%. The activity change, negative = inhibition [4] was -40.2% and the activity change, negative = inhibition [5] was -4.69%.
Work on `N#Cc1ccc(O[C@@H]2c3ccccc3C[C@H]2N2CCC[C@@H](N)C2)c(Cl)c1` yielded an activity change, negative = inhibition [1] of -2.96%, an activity change, negative = inhibition [2] of 9% and an activity change, negative = inhibition [3] of 1.7%. The activity change, negative = inhibition [4] was -13% and the activity change, negative = inhibition [5] was 5%.
For `COc1cccc2c1OCCCN(c1cc(C3CC(O)C3)nc(N)n1)C2` (stereo not given), the activity change, negative = inhibition [1] was -7.12%, the activity change, negative = inhibition [2] was -8.01% and the activity change, negative = inhibition [3] was -50.7%. It also gave an activity change, negative = inhibition [4] of -8.48% and an activity change, negative = inhibition [5] of -2.5%.
In the case of `CC(=O)O[C@@H]1[C@@H](OC(C)=O)[C@H](C)O[C@@H](O[C@H]2[C@@H]3C=CO[C@@H](O[C@@H]4O[C@H](CO)[C@@H](O)[C@H](O)[C@H]4O)[C@@H]3[C@@]3(CO)O[C@@H]23)[C@@H]1OC(=O)/C=C/c1ccccc1`, the activity change, negative = inhibition [1] is reported as -3.35%, the activity change, negative = inhibition [2] is reported as -7.14% and the activity change, negative = inhibition [3] is reported as 6.9%. For the same compound, the activity change, negative = inhibition [4] was -18.6% and the activity change, negative = inhibition [5] was -6.54%.
`Cc1cccc(NC(=O)Cn2c(=O)oc3cc(S(=O)(=O)N4CCCCC4)ccc32)c1` gave an activity change, negative = inhibition [1] of -4.13%, an activity change, negative = inhibition [2] of 4.89% and an activity change, negative = inhibition [3] of 0.449%. For the same compound, the activity change, negative = inhibition [4] was -13.5% and the activity change, negative = inhibition [5] was -11.5%.
With `O=C(CSc1nnc2n(Cc3ccc(F)cc3)c(=O)c3ccccc3n12)NC1CCCCC1` the activity change, negative = inhibition [1] was -4.08%, the activity change, negative = inhibition [2] was 4.16% and the activity change, negative = inhibition [3] was 3.25%. It also gave an activity change, negative = inhibition [4] of -17.5% and an activity change, negative = inhibition [5] of -2.04%.
Compound `COC(=O)c1ccc(OC)c(CN2CC(=O)N(Cc3ccc(F)cc3)c3ccccc3S2(=O)=O)c1` has an activity change, negative = inhibition [1] of 7.72%, an activity change, negative = inhibition [2] of 0% and an activity change, negative = inhibition [3] of 6.15%. The activity change, negative = inhibition [4] was 1.69% and the activity change, negative = inhibition [5] was 2.06%.
Work on `CCC(C)NC(=O)c1ccc2c(=O)n(C)c3nn(CC(=O)NCc4ccccc4)c(=O)n3c2c1` (stereo not given) yielded an activity change, negative = inhibition [1] of -1.91%, an activity change, negative = inhibition [2] of 0% and an activity change, negative = inhibition [3] of -0.702%. The activity change, negative = inhibition [4] was -22.5% and the activity change, negative = inhibition [5] was -1.26%.
`COc1ccc2cc([C@H](C)C(=O)O)ccc2c1` was tested, and the activity change, negative = inhibition [1] was 2.87% and -8.25%, the activity change, negative = inhibition [2] was -6.34% and -0.611% and the activity change, negative = inhibition [3] was -0.115% and -2.8%. The activity change, negative = inhibition [4] was -17.9% and -9.76% and the activity change, negative = inhibition [5] was -9.34% and 0.282%.
Compound `N#Cc1cc(CN2CCC(Nc3ncnc4sc(Cl)cc34)CC2)ccc1F` has an activity change, negative = inhibition [1] of -4.68%, an activity change, negative = inhibition [2] of 4.69% and an activity change, negative = inhibition [3] of -2.5%. It also gave an activity change, negative = inhibition [4] of -33.6% and an activity change, negative = inhibition [5] of -22.9%.
`C=C1C(=O)OC2/C=C(/C)C3=CC(=O)C(C)(CC(OC(=O)/C(C)=C/COC(C)=O)C12)O3` (stereo not given) was tested, and the activity change, negative = inhibition [1] was -3.48%, the activity change, negative = inhibition [2] was 5.95% and the activity change, negative = inhibition [3] was 10.2%. It also gave an activity change, negative = inhibition [4] of -2.51% and an activity change, negative = inhibition [5] of 3.54%.
`CC1(C(=O)NC2CCCCCC2)Cn2c(cc3sccc32)C(=O)N1Cc1cccnc1` (stereo not given) was tested, and the activity change, negative = inhibition [1] was 0.037%, the activity change, negative = inhibition [2] was 0% and the activity change, negative = inhibition [3] was 6.27%. It also gave an activity change, negative = inhibition [4] of -7.6% and an activity change, negative = inhibition [5] of 1.93%.
Work on `COc1ccc2[nH]c3c(-c4cccc5ccccc45)nccc3c2c1` yielded an activity change, negative = inhibition [1] of -1.2%, an activity change, negative = inhibition [2] of -15% and an activity change, negative = inhibition [3] of 8.64%. The activity change, negative = inhibition [4] was -36.8% and the activity change, negative = inhibition [5] was -6.21%.
For `Cc1ccc(C(=O)N2CCCC(n3cc(-c4nc(C5CC5)no4)nn3)C2)s1` (stereo not given), the activity change, negative = inhibition [1] was -9.41%, the activity change, negative = inhibition [2] was -8.71% and the activity change, negative = inhibition [3] was -6.33%. For the same compound, the activity change, negative = inhibition [4] was -5.51% and the activity change, negative = inhibition [5] was -10.5%.
For `CCC(C)NC(=O)c1ccc2c(=O)n(C(C)C)c3nn(CC(=O)c4ccc(C)cc4)c(=O)n3c2c1` (stereo not given), the activity change, negative = inhibition [1] was 0.608%, the activity change, negative = inhibition [2] was 4.97% and the activity change, negative = inhibition [3] was -1.34%. The activity change, negative = inhibition [4] was 1.01% and the activity change, negative = inhibition [5] was 3.98%.
`CN1C(=O)c2cc(C(=O)NCCc3ccco3)nn2CC1(C)C(=O)NCc1ccc(F)cc1` (stereo not given) gave an activity change, negative = inhibition [1] of 4.16%, an activity change, negative = inhibition [2] of 2.89% and an activity change, negative = inhibition [3] of -4.12%. It also gave an activity change, negative = inhibition [4] of 4.39% and an activity change, negative = inhibition [5] of 4.54%.
`CC(C)C[C@H](CC(=O)NO)C(=O)N[C@H](C(=O)N[C@@H](C)C(=O)NCCN)C(C)(C)C` showed an activity change, negative = inhibition [1] of 4.17%, an activity change, negative = inhibition [2] of 6.1% and an activity change, negative = inhibition [3] of 4.38%. The activity change, negative = inhibition [4] was -7.54% and the activity change, negative = inhibition [5] was 2.53%.
`CC1CCC(NC(=O)C2(C)Cn3c(ccc3-c3ccco3)C(=O)N2Cc2ccc(F)cc2)CC1` (stereo not given) gave an activity change, negative = inhibition [1] of 2%, an activity change, negative = inhibition [2] of 0% and an activity change, negative = inhibition [3] of 5.12%. The activity change, negative = inhibition [4] was -0.523% and the activity change, negative = inhibition [5] was -0.781%.
`CCOc1ccc(NC(=O)Cn2c(=O)oc3cc(S(=O)(=O)N4CCCC4)ccc32)cc1` was tested, and the activity change, negative = inhibition [1] was -8.09%, the activity change, negative = inhibition [2] was -0.31% and the activity change, negative = inhibition [3] was -3.98%. The activity change, negative = inhibition [4] was -2.25% and the activity change, negative = inhibition [5] was -14%.
`CC1CCCC(NC(=O)C2(C)Cn3c(cc4occc43)C(=O)N2CCCc2ccccc2)C1C` (stereo not given) showed an activity change, negative = inhibition [1] of -3.6%, an activity change, negative = inhibition [2] of 1.36% and an activity change, negative = inhibition [3] of -5.88%. The activity change, negative = inhibition [4] was -7.04% and the activity change, negative = inhibition [5] was -7.95%.
Work on `CN(CCN1C(=O)c2cc3occc3n2CC1(C)C(=O)NC1CCCCCC1)C1CCCCC1` (stereo not given) yielded an activity change, negative = inhibition [1] of 6.01%, an activity change, negative = inhibition [2] of 3.34% and an activity change, negative = inhibition [3] of 5.35%. The activity change, negative = inhibition [4] was 4.72% and the activity change, negative = inhibition [5] was 4%.
For `CC(=O)O[C@H]1CC[C@H](C)[C@@]2(C)[C@H](OC(C)=O)c3c(C)coc3C(=O)[C@H]12`, the activity change, negative = inhibition [1] was -2.04%, the activity change, negative = inhibition [2] was -4.87% and the activity change, negative = inhibition [3] was 7.55%. For the same compound, the activity change, negative = inhibition [4] was -18.3% and the activity change, negative = inhibition [5] was -14.7%.
`C=CCn1c(=O)c2ccc(C(=O)NCC(C)C)cc2n2c(=O)n(CC(=O)Nc3cccc(C)c3)nc12` gave an activity change, negative = inhibition [1] of -5.08%, an activity change, negative = inhibition [2] of 0.439% and an activity change, negative = inhibition [3] of -3.73%. It also gave an activity change, negative = inhibition [4] of -8.67% and an activity change, negative = inhibition [5] of -7.18%.
`C=Cc1ccc(Cn2nc3n(Cc4ccc(C)cc4)c(=O)c4ccccc4n3c2=O)cc1` gave an activity change, negative = inhibition [1] of 3.85%, an activity change, negative = inhibition [2] of 5.91% and an activity change, negative = inhibition [3] of 4.81%. The activity change, negative = inhibition [4] was -3.68% and the activity change, negative = inhibition [5] was 1.5%.
Compound `COc1ccccc1CNC(=O)Cn1ccc2cc(S(=O)(=O)N3CCC(C)CC3)ccc21` has an activity change, negative = inhibition [1] of 6.17%, an activity change, negative = inhibition [2] of 0.912% and an activity change, negative = inhibition [3] of 6.13%. For the same compound, the activity change, negative = inhibition [4] was 3.8% and the activity change, negative = inhibition [5] was 4.25%.
Compound `CCc1cccc(N(C)C(N)=Nc2cccc3ccccc23)c1` has an activity change, negative = inhibition [1] of -9.11%, an activity change, negative = inhibition [2] of -5.05% and an activity change, negative = inhibition [3] of -44.3%. It also gave an activity change, negative = inhibition [4] of -15% and an activity change, negative = inhibition [5] of 0.5%.
For `COc1ccc(-c2cnc(-c3cccc4c3-c3ccccc3C4=O)o2)cc1`, the activity change, negative = inhibition [1] was 5.86%, the activity change, negative = inhibition [2] was 2.07% and the activity change, negative = inhibition [3] was 6.26%. The activity change, negative = inhibition [4] was -10% and the activity change, negative = inhibition [5] was 0.878%.
`Cc1nnc2n1CCC(N(C)C(=O)NCCc1ccccc1)CC2` (stereo not given) was tested, and the activity change, negative = inhibition [1] was 1.17%, the activity change, negative = inhibition [2] was -1.92% and the activity change, negative = inhibition [3] was -2.14%. For the same compound, the activity change, negative = inhibition [4] was -0.052% and the activity change, negative = inhibition [5] was 1.77%.
For `CCOc1ccccc1CNC(=O)Cn1ccc2cc(S(=O)(=O)N3CCC(C)CC3)ccc21`, the activity change, negative = inhibition [1] was 3.1%, the activity change, negative = inhibition [2] was 0.273% and the activity change, negative = inhibition [3] was -2.97%. The activity change, negative = inhibition [4] was 0.635% and the activity change, negative = inhibition [5] was 1.29%.
